# Assay results as given in publication PMC4336329 (PLoS ONE, 2015).
# The whole screen tested about 310,000 compounds, of which about 2,200 (0.71%) showed an effect of 50% or more. The effect is printed as a negative number. Some of the results follow.
# Molecular target: human ether-à-go-go-related gene (hERG) potassium channel (human, UniProt Q12809)
# Assay: primary screen, population patch clamp on CHO cells stably expressing hERG
# Sequence of human ether-à-go-go-related gene (hERG) potassium channel (Q12809 whole entry, looked up): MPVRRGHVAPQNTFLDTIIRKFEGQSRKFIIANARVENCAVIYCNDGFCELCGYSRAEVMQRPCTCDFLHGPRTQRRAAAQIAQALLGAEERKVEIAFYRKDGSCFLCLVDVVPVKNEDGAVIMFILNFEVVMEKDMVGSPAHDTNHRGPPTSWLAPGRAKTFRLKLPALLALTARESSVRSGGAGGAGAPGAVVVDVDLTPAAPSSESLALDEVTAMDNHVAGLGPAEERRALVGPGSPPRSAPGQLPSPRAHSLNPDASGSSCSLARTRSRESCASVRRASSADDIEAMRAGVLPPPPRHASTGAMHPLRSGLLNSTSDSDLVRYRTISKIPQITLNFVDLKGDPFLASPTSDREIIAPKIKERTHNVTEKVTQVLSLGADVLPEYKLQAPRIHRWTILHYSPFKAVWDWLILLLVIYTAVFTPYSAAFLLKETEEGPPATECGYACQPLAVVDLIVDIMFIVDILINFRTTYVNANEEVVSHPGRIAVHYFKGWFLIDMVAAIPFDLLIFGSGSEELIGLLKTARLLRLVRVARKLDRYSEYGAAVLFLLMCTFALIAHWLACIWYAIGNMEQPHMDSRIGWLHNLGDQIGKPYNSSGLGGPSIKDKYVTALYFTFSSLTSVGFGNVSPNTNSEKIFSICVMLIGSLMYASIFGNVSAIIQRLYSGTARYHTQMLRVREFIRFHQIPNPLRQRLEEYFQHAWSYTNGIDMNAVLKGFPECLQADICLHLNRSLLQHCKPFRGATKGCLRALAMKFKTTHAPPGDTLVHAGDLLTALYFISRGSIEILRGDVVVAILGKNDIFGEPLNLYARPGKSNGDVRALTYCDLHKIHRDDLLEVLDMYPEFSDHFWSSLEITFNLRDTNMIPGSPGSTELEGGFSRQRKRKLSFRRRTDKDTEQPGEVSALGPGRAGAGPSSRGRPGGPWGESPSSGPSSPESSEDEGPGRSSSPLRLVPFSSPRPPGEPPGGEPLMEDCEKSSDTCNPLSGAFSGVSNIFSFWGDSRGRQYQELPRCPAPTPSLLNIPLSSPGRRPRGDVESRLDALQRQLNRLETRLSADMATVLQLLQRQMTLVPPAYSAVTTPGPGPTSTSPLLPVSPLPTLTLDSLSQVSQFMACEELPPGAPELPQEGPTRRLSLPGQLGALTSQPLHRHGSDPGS
row,Compound,"hERG current change (%, negative = inhibition) at 1uM [%]"
1,COc1ccc(NC(=O)CN(C)CC(=O)Nc2sc3c(c2C#N)CCC3)cc1,10.6
2,CN(C)C(=O)COC(=O)c1cccc(S(=O)(=O)Nc2ccc(OCc3ccccc3)cc2)c1,13.1
3,N#Cc1c(NC(=O)/C=C/C(=O)O)sc2c1CCN(Cc1ccccc1)C2,9.47
4,C=CCn1c(=S)[nH]c2cc(C(=O)Nc3ccc(OC)c(OC)c3)ccc2c1=O,11.7
5,COc1ccc(-c2nn(-c3ccccc3)cc2/C=N/NC(=O)c2ccc(Br)o2)cc1,2.64
6,CCCN(CCC)C(=O)CP(=O)(c1ccccc1)c1ccccc1,-1.18
7,Cc1ccc(S(=O)(=O)N2CCN(c3c([N+](=O)[O-])cc(C(F)(F)F)cc3[N+](=O)[O-])CC2)cc1,10.9
8,COCCCN1C(=O)C(=O)/C(=C(/O)c2ccc(OC)cc2)C1c1ccc(O)c(OC)c1 (centres unmarked),6.46
9,COc1ccc(Nc2cc(C)nc3ccc(OC)cc23)cc1,-15.6
10,CCNC(=O)NC1(C(=O)N2CCC(Cc3ccccc3)CC2)CCCCC1,12.8
11,Cc1cccc(NC(=O)CSc2nnc(NC(=O)C3CCC3)s2)c1,12.5
12,COC(=O)CC1C(=O)NCCN1C(=O)c1ccc(S(=O)(=O)N2CCOCC2)cc1 (centres unmarked),8.7
13,Cc1ccc(NC(=O)Cn2c(CCC(=O)O)ccc2-c2cccs2)cc1Cl,-35.4
14,Cc1ccc(-c2ccc3c(c2)S(=O)(=O)c2ccccc2C3=O)cc1,10.6
15,C=CCNC(=O)c1onc(CSc2cccc(C)c2)c1C(=O)O,-15.8
16,COCCNC(=O)/C(C#N)=C/c1cccc(OCc2ccccc2)c1,3.12
17,CC(C(=O)NC1C=CS(=O)(=O)C1)N1C(=O)/C(=C/c2ccc(Cl)cc2)SC1=S (centres unmarked),8.8
18,COc1ccc(CCN(C)CC(O)COc2c(C)ccc(C)c2C)cc1OC (centres unmarked),-68.7
19,O=S(=O)(Nc1ccc(-c2ccc3nncn3n2)cc1)c1cc(F)ccc1F,1.51
20,Cc1ccc(-c2nn(C)c(=O)c3ccccc23)cc1CNS(C)(=O)=O,10.7
21,COc1cc(O)oc1C=Nc1ccccc1,-19.9
22,CCCC1C2C(=O)N(c3cccc(C)c3)C(=O)C2ON1c1ccccc1 (centres unmarked),4.52
23,CCOC(=O)c1nc(-c2ccccc2)sc1C(C)=O,17.7
